Results as given in PMC12136788.
The other results are listed elsewhere or left out.

B1: chr8:23842656:23842757:-|3pUTR|ENSG00000159167|msi1|FALSE|unique (ssRNA)
RNA: GGGAGUUCUACAGUCCGACGAUCCCCCAAACUUAUGGACACUGCCUUAGCCUCUUGGAAAUCAGGUAGACCAUAUUCUAAGUUAGACUCUUCCCCUCCCUCCCACACUUCCCACCCCCAGGCAAGGCUGACUUCUCUGAAUCACAACAGAGGAUUGAGCAUCA
B2: chr15:99715702:99716401:-|three_prime_utr|ENSG00000183060|control|control|control (ssRNA)
RNA: GGGAGUUCUACAGUCCGACGAUCUGUUGACUACAAACAUUUACCAAAUACAUAAAUCUCUUUUAAAAAAGCCAUUUUAAAUAUAGCAAAGCAGUGUCUUCUUGCACAGCAAAGUGAAGAAAGUUUCUACAGAGAAAUAGAAGUCAACAGAGGAUUGAGCAUCA
B3: ENSG00000107863:be:win_1201|CDS|ENSG00000107863|bound_else_gene|NA|bound_elsewhere_windowed (ssRNA)
RNA: GGGAGUUCUACAGUCCGACGAUCUUGCACAUAGGUUGUCGGACAAUACAAGAAAGAUUAGAUAGUUUAAGAGCAGCAUCUCAAAGCACGACAGAUUAUAACCAGGUCGUCCCCAACCGCACUACUUUGCAGGGACGACGUCGACAACAGAGGAUUGAGCAUCA
B4: chrX:74591538:74591767:-|CDS|ENSG00000131263|unk|total|mutant (ssRNA)
RNA: GGGAGUUCUACAGUCCGACGAUCUUGCCCUUCCUCCGCCUGGCUCAGUUUUUCCUCUUAAAUGAGGAUGAUGAUGACCAACCCCGAGGACUCACCAAAGAACAGAUUGACAACUUGGCAAUGAGAAGUUUUGGUGAAAAUGAUCAACAGAGGAUUGAGCAUCA
B5: chr12:106239179:106239280:-|CDS|ENSG00000136026|msi1|total|mutant (ssRNA)
RNA: GGGAGUUCUACAGUCCGACGAUCGGACCAAGCCCAGGCCGCCCGUCUGCCUCCUCAGGACUUCCUGGACAGACUUUCUUCUCCCGACAACCUGAAAGCCUCAGUCAGCCAAGUGGAGGCGGACUUGAAAAUGCUCAGGACUGCCAACAGAGGAUUGAGCAUCA
B6: ENSG00000162063:stop:overlap|stop_codon|ENSG00000162063|stop_codon|NA|stop_codon (ssRNA)
RNA: GGGAGUUCUACAGUCCGACGAUCUGCGGCACUGCACCAAGGAGCCCCCGAGCGCUGAGAGCCCACACCCCGUCCCGGCUGUCUAGGUCCCCACUGUGGUGGAUUACAAGGAGGUCCUGCUGACGCUAGUCCCUGUGGAGCUGACAACAGAGGAUUGAGCAUCA
B7: ENSG00000107863:be:win_4451|CDS|ENSG00000107863|bound_else_gene|NA|bound_elsewhere_windowed (ssRNA)
RNA: GGGAGUUCUACAGUCCGACGAUCGCACGACAAAAGAUGAAAAGAUAUCACUAGGAAAAGAGAGCACGCCUUCUGAAGAACCCUCACCACCACACAACUCAAAACACAACAAGUCACCAACUCUCAGCUGUCGCUUUGCCAUCCCAACAGAGGAUUGAGCAUCA
B8: chr7:139716074:139716127:-|CDS|ENSG00000064393|msi1_unk|total|mutant (ssRNA)
RNA: GGGAGUUCUACAGUCCGACGAUCGAAGCAAAACAAGUUCCGCCCCUUGCCCCUCAAAUACAUUCGCCCAGUUCUCCAGCAGGCCGCCACAGCCCUGAUGAAACUCAAAAGCCCCGGUCUUAUCCACGCUGACCUCAAACCAGACAACAGAGGAUUGAGCAUCA
B9: chrX:56565067:56565173:+|CDS|ENSG00000188021|unk|total|mutant (ssRNA)
RNA: GGGAGUUCUACAGUCCGACGAUCAGAAGCAUGAUGCAGUCGCUGAGCCAGAAUCCAGAUUUGGCUGCACAGAUGAUGCUGAACCGCCCGCUGUUUACUGCAAAUCCUCAGCUGCAGGAGCAGAUGCGGCCACAGCUCCCAGCCCAACAGAGGAUUGAGCAUCA
B10: chr5:75360489:75360590:+|3pUTR|ENSG00000113161|msi1|FALSE|unique (ssRNA)
RNA: GGGAGUUCUACAGUCCGACGAUCGCUCUUUCAGAGAGGUCUCAGGUUCUUUCCAUGCAGACUCCUCAGAUCUGAACACAGUUUAGUGCUUUACAUGCUGUGCUCUUUGAAGAGAUUUCAACAAGAAUAUUGUAUGUUAAAGCACAACAGAGGAUUGAGCAUCA
B11: chr2:11642538:11642650:+|3pUTR|ENSG00000196208|unk|FALSE|unique (ssRNA)
RNA: GGGAGUUCUACAGUCCGACGAUCCGAAGAGUUGAUGUCAAUCUUUUUUUCCUAAGAAAAAAAGUCCGCGAGUAUUAAAUAUUUAGAUCAAUGUUUAUAAAAUGAUUACUUUGUAUAUCUCAUUAUUCCUAUUUUGGAAUAAAACAACAGAGGAUUGAGCAUCA
B12: chr1:211748167:211748268:-|3pUTR|ENSG00000123684|msi1|total|mutant (ssRNA)
RNA: GGGAGUUCUACAGUCCGACGAUCGUACUGCAUCAGUGAGAUGAGCCGGGUUUUUGUUUGGGAUUGUAAGACUAUUAAGAUCCCCGUAAGUCAGUGGCCGUUUACUGUGAUGUGAGCAUUGCCGAUUCCCCCGUUGUCACUAAUCAACAGAGGAUUGAGCAUCA
B13: chr3:170361105:170361226:+|CDS|ENSG00000136603|unk|total|mutant (ssRNA)
RNA: GGGAGUUCUACAGUCCGACGAUCAAGCUCAUUGGCCCAGUUAAAGGAAACUGGCAGUGCCUUUGAAGUGGAGCAUGAAUGCCCCGGCAAAUGUCAGGGUUUAUUUGCACCCCAGUUUUAUGUUCAGCCUGAUGCUCCGUGUAUCAACAGAGGAUUGAGCAUCA
B14: chr7:88283957:88284065:-|CDS|ENSG00000127954|unk|total|mutant (ssRNA)
RNA: GGGAGUUCUACAGUCCGACGAUCCAGUGGUGCAGAAGUCUUGAGCUAUUCAGAAGCAGCCAAGAAGUCUGGCAUCAUAAUCACCGCAAUCCACAGAGAGCAUUAUGAUUUUCUCACAGAAUUAACUGAGGUUCUCAAUGGAAACAACAGAGGAUUGAGCAUCA

The binders below were run against T1, UNK ZnF1-6 (called full-length) (human, UniProt Q9C0B0 30-357) (assay: nsRBNS (natural sequence RNA bind-n-seq); RBNS binding buffer (assumed for nsRBNS): 25 mM Tris pH 7.5, 150 mM KCl, 3 mM MgCl2, 0.01% Triton X-100, 500 ug/ml BSA, 20 U/ml SUPERase-In, 4 C; UNK is unkempt and MSI1 is Musashi-1; names of the RNAs are library labels; protein concentration not given here; high values mean tight binding).
T1 sequence: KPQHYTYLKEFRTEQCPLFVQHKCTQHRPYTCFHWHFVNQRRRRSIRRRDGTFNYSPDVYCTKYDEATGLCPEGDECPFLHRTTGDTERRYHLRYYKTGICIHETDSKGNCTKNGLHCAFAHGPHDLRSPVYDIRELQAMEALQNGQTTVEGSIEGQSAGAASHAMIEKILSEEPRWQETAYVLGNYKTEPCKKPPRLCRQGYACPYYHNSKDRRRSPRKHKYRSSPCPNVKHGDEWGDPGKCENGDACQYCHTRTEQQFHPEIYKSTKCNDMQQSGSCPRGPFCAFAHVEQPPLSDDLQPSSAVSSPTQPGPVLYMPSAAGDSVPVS

Binder | binding signal
B1 | 1.1 enrichment R
B2 | 1.38 enrichment R
B3 | 1.74 enrichment R
B4 | 0.484 enrichment R
B5 | 0.817 enrichment R
B6 | 1.59 enrichment R
B7 | 0.919 enrichment R
B8 | 0.903 enrichment R
B9 | 0.531 enrichment R
B10 | 0.272 enrichment R
B11 | 1.25 enrichment R
B12 | 0.673 enrichment R
B13 | 0.504 enrichment R
B14 | 0.323 enrichment R
